Test results taken from PubChem BioAssay AID2060348 (Molecular Pharmacology Branch, DTP, NCI, 2025).
Certain results were filed several times, with different values. They are shown here; other results are not. An entry can have further records. Values given together are repeated measurements across runs, samples, wells, individuals or studies.

Tested on: 885724-159-R-J1-PDC spheroids viability
Experiment: Anticancer human tumor 885724-159-R-J1-PDC patient-derived pancreatic adenocarcinoma cell line growth inhibition [TAK]
Conditions: drug combinations; compound alone; run of 02/28/2020
Text: Combinatorial screen of targeted agents with TAK-243 and ipatasertib in multi-cell type tumor spheroids
A high-throughput screen of multi-cell type tumor spheroids was designed to identify active combinations of targeted small molecules and TAK-243 or ipatasertib. Complex spheroids include a stromal component modeled by human endothelial cells (HUVEC) and fibroblasts modeled by human mesenchymal stem cells (MSCs). The concentration ranges selected for each drug and investigational agent were based upon clinically achievable concentrations if the clinical Cmax of the agent was known.
Compounds. […] If the clinical Cmax for an agent had not been determined, the highest concentration tested was 10 microM.
NCI60 Cell Culture. […] The optimal seeding densities for each of the cell lines at each time point assessed were determined prior to performing the concentration response studies. […]
For the pre-screen, cell seeding densities were determined from a titration spanning the range from 5,000 to 313 cells per well. […]
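Note: spheroids exposed to drugs for seven days.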

CC(C)NCC(C(=O)N1CCN(c2ncnc3c2C(C)CC3O)CC1)c1ccc(Cl)cc1 (stereo unspecified)
IC50: 7.04, 10.7, 9.45, 4.68, 4.51, 7.46, 5.55, 5.18, 3.49, 5.89 µM
